# Results: paper PMC4336329 (PLoS ONE, 2015)
# The whole screen tested about 310,000 compounds, of which about 14,000 (4.5%) showed an effect of 50% or more. The effect is printed as a negative number. The list shows a part of the results.
# Target: human ether-à-go-go-related gene (hERG) potassium channel (human, UniProt Q12809)
# Assay: primary screen, population patch clamp on CHO cells stably expressing hERG
# 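Further: peak tail current of the secondary pulse compared with the same well before compound.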
# Chain of human ether-à-go-go-related gene (hERG) potassium channel (Q12809 whole entry, looked up): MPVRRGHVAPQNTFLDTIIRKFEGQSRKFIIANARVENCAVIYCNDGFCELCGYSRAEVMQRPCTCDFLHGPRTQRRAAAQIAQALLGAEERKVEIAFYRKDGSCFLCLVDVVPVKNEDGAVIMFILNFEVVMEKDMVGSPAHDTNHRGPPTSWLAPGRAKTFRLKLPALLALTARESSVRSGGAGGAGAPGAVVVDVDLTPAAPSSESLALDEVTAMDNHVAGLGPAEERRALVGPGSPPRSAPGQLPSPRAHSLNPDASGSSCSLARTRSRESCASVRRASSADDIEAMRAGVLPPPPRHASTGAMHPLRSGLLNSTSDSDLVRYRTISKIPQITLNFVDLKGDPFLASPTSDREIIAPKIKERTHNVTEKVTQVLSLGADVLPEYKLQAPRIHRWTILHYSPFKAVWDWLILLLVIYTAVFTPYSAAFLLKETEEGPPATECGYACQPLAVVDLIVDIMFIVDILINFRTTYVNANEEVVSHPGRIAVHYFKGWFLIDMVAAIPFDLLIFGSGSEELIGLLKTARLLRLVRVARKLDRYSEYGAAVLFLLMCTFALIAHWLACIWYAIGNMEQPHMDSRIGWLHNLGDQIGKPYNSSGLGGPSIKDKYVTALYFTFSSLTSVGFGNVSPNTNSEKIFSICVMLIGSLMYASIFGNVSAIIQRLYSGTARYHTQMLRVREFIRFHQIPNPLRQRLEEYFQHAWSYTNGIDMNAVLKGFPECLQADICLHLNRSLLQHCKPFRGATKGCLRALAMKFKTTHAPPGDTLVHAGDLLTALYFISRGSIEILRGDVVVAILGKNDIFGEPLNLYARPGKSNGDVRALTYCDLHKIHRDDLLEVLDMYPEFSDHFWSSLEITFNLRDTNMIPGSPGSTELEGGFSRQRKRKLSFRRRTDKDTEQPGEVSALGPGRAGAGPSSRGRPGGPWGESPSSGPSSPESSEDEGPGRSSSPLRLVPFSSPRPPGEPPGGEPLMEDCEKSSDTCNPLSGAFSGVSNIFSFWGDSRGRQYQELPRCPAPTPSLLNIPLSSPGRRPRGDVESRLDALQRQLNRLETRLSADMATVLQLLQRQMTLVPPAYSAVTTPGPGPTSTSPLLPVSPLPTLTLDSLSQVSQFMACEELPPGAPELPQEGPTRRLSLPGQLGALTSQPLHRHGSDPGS
row,SMILES,"hERG current change (%, negative = inhibition) at 10uM"
1,Cc1ccc([N+](=O)[O-])cc1NC(=O)C1CCCC1,17.3%
2,COc1ccsc1NC(=O)OCc1ccc(Cl)cc1,-77.8%
3,COc1ccccc1N1CCN(CC(=O)Nc2ccc(-n3cnnn3)cc2)CC1,-28.9%
4,O=C(NCC1CCCO1)c1cc(-c2ccccc2)on1 (stereo not drawn),-4.98%
5,COc1cc(C(=O)Nc2ccc(C#N)cc2)c([N+](=O)[O-])cc1OC,-20.3%
6,COc1ccccc1NC(=S)NC(=O)CC(C)C,-6.46%
7,Cc1cc(C)c(NC(=O)CN(C)C(=O)CNC(=O)c2cccs2)c(C)c1,-2.53%
8,CCOc1nc(N2CCOCC2)nc(C)c1[N+](=O)[O-],-19.9%
9,CCOC(=O)N1CCN(C(=O)c2ccc3ccccc3c2)CC1,-2.29%
10,CCN(CC)CCn1c(NCc2ccc(OC)cc2)nc2ccccc21,-65.5%
11,COc1ccc(NC(=O)Cn2c(C(C)C)nc(C)cc2=O)cc1Cl,6.64%
12,Cc1c([N+](=O)[O-])cc(C(=O)Oc2cccc(C(=S)N3CCOCC3)c2)cc1[N+](=O)[O-],11.8%
13,Cc1ccc2oc(-c3ccc(NC(=O)c4cccnc4)cc3)nc2c1,2.13%
14,CCOC(=O)C1=C(C)N=C2SC(C)C(=O)N2C1c1ccc(OC(C)=O)c(OC)c1 (stereo not drawn),9.41%
15,Cc1cc(C(=O)C(C)OC(=O)c2ccc(NC(=O)CC#N)cc2)c(C)n1-c1ccccc1 (stereo not drawn),20.8%
16,Cc1ccc(OCC(=O)N2CCC(N3CCCCCC3)CC2)cc1,-28.3%
17,O=c1c(Cc2c(F)cccc2Cl)c(O)ccn1C1CCCCCC1,11%
18,O=C(O)c1cnccn1,10.1%
19,CCOC(=O)C1=C(N)N2C(=O)C(C)SC2=C(C(=O)OC)C1c1ccccc1OC (stereo not drawn),9.15%
20,COc1cc(C(NC(C)=O)NC(C)=O)ccc1OCc1ccccc1,20.8%
21,CC1CCC(NC(=O)CCC(=O)N2CC(C)Oc3ccccc32)CC1 (stereo not drawn),-0.469%
22,O=C1CC(c2ccccc2)CC(=O)C1CS(=O)(=O)c1ccccc1 (stereo not drawn),18.1%
23,Cc1cnc(NS(=O)(=O)c2ccccc2)c(Br)c1,10.1%

row,SMILES,"hERG current change (%, negative = inhibition) at 10uM"
1,C=CCN(CC=C)C(=S)NC(=O)/C=C/c1ccc(C)cc1,8.14%
2,CCOC(=O)CC(=O)CSc1ccc2nnc(-c3cccc(F)c3)n2n1,-72.2%
3,CN(C)CCN(C(=O)c1cc(Cl)sc1Cl)c1nc2ccc(F)cc2s1.Cl,-67.3%
4,CC(=O)c1ccc(S(=O)(=O)Nc2ccc(C(=O)NCCCn3ccnc3)cc2)cc1,-19.3%
5,CC(NC(=O)CSc1nnc(-c2cccnc2)n1N)c1ccccc1 (stereo not drawn),19.1%
6,COc1ccc(-c2c(C)nn3c(Cl)c(C)c(C)nc23)cc1,11.4%
7,COc1ccc(NC(=O)C(NC(C)=O)C(=O)Nc2ccc(F)cc2)cc1 (stereo not drawn),10%
8,COc1cccc(NC(=O)CSc2ccc3nnc(-c4cccnc4)n3n2)c1,-37.5%
9,Cc1cccc(Sc2ccc([N+](=O)[O-])cn2)c1,-0.303%
10,Cc1ccc(-n2c(N)c(Br)c(=O)[nH]c2=O)cc1C,11.8%
11,Cc1ccc(S(=O)(=O)N2CCCCC2CCNC(=O)C(=O)NCC2CCCO2)cc1 (stereo not drawn),-23.6%
12,O=C(Nc1cccc(F)c1)Nc1cnccn1,10.9%
13,O=C(CCc1ccccc1)NCC(=O)N/N=C/c1ccc2c(c1)OCO2,-3.39%
14,CCOC(=O)C1(Cc2ccc(Cl)cc2)CCN(C(=O)c2cc(C)nc(C)n2)CC1,-38.1%
15,O=C(COc1ccc(Cl)cc1Br)Nc1ccccc1N1CCCC1,9.41%
16,COc1ccc(-c2c(C(=O)O)c(C(=O)O)c3n2CCC3)cc1,24.2%
17,CCc1ccccc1Nc1nc(N)nc(CSCC(=O)c2cc(C)n(C)c2C)n1,2.36%
18,Cc1cc(N2CC(C(=O)NCc3cccnc3)CC2=O)ccc1C(C)C (stereo not drawn),-21.5%
19,CCCCSc1nc2c(c(C(F)(F)F)c1C#N)CCC2,6.11%
20,CCC(CC)C(=O)Nc1nnc(SCC(=O)N2CCN(c3ccccc3OC)CC2)s1,2.87%
21,CCc1ccccc1NC(=S)N=Nc1c(O)n(C)c2ccc(S(=O)(=O)N3CCOCC3)cc12,1.6%
22,COCCCn1c(SCC(=O)NCc2ccccc2)nc2ccccc2c1=O,-48.6%
23,COc1ccc(NC(=O)c2cccnc2SC)cc1OC,19.5%

row,SMILES,"hERG current change (%, negative = inhibition) at 10uM"
1,CC(=O)c1ccc(N2CCN(S(=O)(=O)c3ccc4c(c3)NC(=O)CO4)CC2)cc1,18.8%
2,CCn1c(SC(C)C)nnc1-c1cc(-c2ccccc2)sc1N,-7.04%
3,COc1ccc(-c2[nH]ncc2CN(CC2CCC(=O)N2)C(C)C)cc1F (stereo not drawn),1.2%
4,CC(=O)c1cccc(N(CC(=O)NC2CCCC2)C(=O)CNC(=O)c2cccs2)c1,6.44%
5,CCNC(=O)C(=O)c1c(-c2ccccc2)[nH]c2ccccc12,15.4%
6,CCC1C(=O)N=C(SCC(=O)Nc2nc3ccccc3s2)NC1=O (stereo not drawn),17.5%
7,Cc1cccc(-c2noc(Cc3ccc(Cl)cc3)n2)c1,18.5%
8,CN(C)S(=O)(=O)c1cccc(C(=O)NCC(=O)NC2CCN(Cc3ccccc3)CC2)c1,3.32%
9,COc1cccc(/C=C/c2ccc3ccccc3n2)c1OC(C)=O,26%
10,CCOC(=O)N1CCC(NC(=O)C2CCCN(Cc3nc(-c4ccc(CC)cc4)oc3C)C2)CC1 (stereo not drawn),-71.5%
11,Cc1cc(NC(=O)CSc2nc(C(C)C)nc3c2c(=O)n(C)c(=O)n3C)no1,7.37%
12,O=C(Nc1cnc2ccccc2c1)N1CCCCC1,2.63%
13,CCCN1CCN(C(=O)c2c(Cl)cnn2C)CC1,5.14%
14,O=C(O)c1ccc(NC(=O)c2ccc(COc3ccccc3)o2)cc1,14.3%
15,CCCCCC(=O)NC(=S)NNC(=O)CC,12.9%
16,Cc1ccc2c(c1)[nH]c1c(=O)n(CCCN3CCOCC3)cnc12,-34%
17,CCCCC1=CC2=CC(=O)C(C)(OC(=O)CC)C(=O)C2=CN1Cc1ccc(OC)cc1 (stereo not drawn),-55.1%
18,COc1cc(/C=C2/SC(=S)N(C)C2=O)ccc1OC(=O)c1ccco1,-4.25%
19,CC1(C)SC(=Nc2ccccc2)N(S(=O)(=O)c2ccccc2)C1=O,-7.06%
20,Cc1ccc(S(=O)(=O)Nc2ccc3c(c2)OCCO3)c(C)c1NS(C)(=O)=O,-5.82%
21,COc1cc2c(cc1OC)C(c1ccc(N(C)C)cc1)NCC2.Cl (stereo not drawn),5.99%
22,CNC(=O)c1[nH]cnc1C(=O)N[C@@H](C)C(=O)OCc1ccccc1,-5.67%
23,Cc1cc(NC(=O)CN2CCN(c3ccccc3O)CC2)no1,-7.15%

row,SMILES,"hERG current change (%, negative = inhibition) at 10uM"
1,COc1cccc(C(=O)N/N=C(/CCC(=O)O)c2ccccc2)c1,5.17%
2,Cc1ccc(C)n1CCN1CCN(C(=O)CSc2nc3ccccc3nc2N2CCOCC2)CC1,-54.5%
3,COc1ccc(NS(=O)(=O)c2cccc(C(=O)NC3CCC(O)CC3)c2)cc1 (stereo not drawn),-0.973%
4,Cc1ccc(NC(=O)CN2C(=O)S/C(=C/c3ccc(-c4cc(C(=O)O)ccc4C)o3)C2=O)cc1C,-1.07%
5,O=C(NN1C(=O)C2C3c4ccccc4C(c4ccccc43)[C@@H]2C1=O)c1ccccc1 (stereo partly drawn),6.97%
6,COc1cc(NC(=O)Cn2cnc(S(=O)(=O)N3CCc4ccccc43)c2)cc(OC)c1OC,13.4%
7,Cc1ccc(NC(=S)N(CCN(C)C)C(C)c2ccco2)c(C)c1 (stereo not drawn),-34.1%
8,O=C(/C=C1\NCC2c3ccccc3CCN2C1=O)c1ccccc1 (stereo not drawn),-12%
9,N#Cc1ccc(C(=O)OCC(=O)Nc2cccc(S(=O)(=O)N3CCCCC3)c2)cc1,-7.3%
10,Cc1ccc(CN=C(N)Nc2nc(C)cc(C)n2)cc1.Cl,-76.1%
11,O=C(CSCc1ccc([N+](=O)[O-])cc1)N/N=C/c1ccncc1,-49.1%
12,CN(C)/C=N/c1ncc(C(=O)c2ccccc2)s1,1.48%
13,Cc1cccc(C(=O)N(Cc2ccc(C)o2)C2CCS(=O)(=O)C2)c1 (stereo not drawn),-48.4%
14,CC(C)C(NC(=O)c1ccccc1F)C(=O)Nc1nccs1 (stereo not drawn),46.7%
15,O=C(NCCN1CCOCC1)c1cc([N+](=O)[O-])ccc1Cl,6.5%
16,CCOC(=O)C1(C)NC(c2cccs2)C2C(=O)N(c3ccc(C)cc3)C(=O)C21 (stereo not drawn),6.5%
17,CN1/C(=C/c2cccc[n+]2CCO)Sc2ccccc21.[I-],12.4%
18,CCCCNS(=O)(=O)c1ccc(NC(=O)C2CCCO2)cc1 (stereo not drawn),-8.88%
19,COc1cc(NC(=S)Nc2cccc(Cl)c2Cl)c(OC)cc1Cl,3.14%
20,S=c1[nH]ncn1/N=C/c1cccs1,19.3%
21,CCN(Cc1ccccc1)S(=O)(=O)c1ccc(C(=O)N(CCCN(C)C)c2nc3cc4c(cc3s2)OCCO4)cc1.Cl,-27.5%
